# The other results are listed elsewhere or left out.
# Test system: PfHDP1 homeodomain (GST-tagged)
# Experiment: gcPBM binding intensity (ln(normalized median fluorescence intensity)); higher = stronger DNA binding
# In short: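 The highest Masliner-normalised natural-log median intensity across replicate spots of either probe orientation is reported as binding intensity. GST-tagged P. falciparum DNA-binding domains expressed in E. coli were applied for 1 h to an Agilent 4 × 180k array of primer-extended double-stranded 36-bp intergenic genomic probes plus negative controls, and bound protein was detected with Alexa488 anti-GST antibody and scanned at 488 nm.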
row,Sequence,gcPBM binding intensity (ln)
1,CTATTTTAATATTTTACACACCATGTAAAATATATA [CACACA_site5732],6.57
2,TATCATCTTAATATCGTGCACATTTATAGAACGAAA [GTGCAC_site9992],9.74
3,TATTATTCCATGTGAAGTACAGAAATATAAATAAAT [XGTACX_site5106],5.96
4,CTTTTAAAAAAATTCATGCACACGAAATAAAAAGCA [CACACA_site929],8.99
5,TTTATTTTTCATTGGGGTACACAAGTTTATTTTATT [XGTACX_site4263],7.23
6,CCATAATTATATGCCAGTACATATTTGTAACAAAAA [XGTACX_site851],6.7
7,TAAGTAATAGTTTGTGCACACTCAAGTATATCATAT [CACACA_site4035],11.1
8,CAAAATATTTTTATAACACACATATATAGAATGTGC [CACACA_site1145],6.34
9,TATTTTTTTTCGTAATGTACATAAAAAATGCAAAAA [XGTACX_site8491],7.14
10,TATATATATATAACAACACACACAGATCATAAAACT [CACACA_site8670],8.9
11,ATTATATAATTTAATCGTACACAAATATTTGTTAGT [XGTACX_site5913],6.79
12,AGTATTCATAAAAATACACACATGGAAAAATAAAAT [CACACA_site1454],6.88
13,AGCAAAAAAAAAAAAAAAAAAAAAATAATAAAAAAT [TGCATGCA_negctrl_site202],6.01
14,ATATATATATAATAAGTGCAAAAAAAAGAAAAAAAT,9.3
15,GTTTTCTAGTGGGGGTGTACATATTTATATTTAATA [XGTACX_site8378],9.48
16,TTTTTTTTTTTTGAGGTGCATATATCAGATCAATAT,9.21
17,CATATATTAATATGTACACACATTAATAAAAAAAAA [CACACA_site7504],6.24
18,TCAAGAGTTATATAAACACACATACATACAGACATA [CACACA_site6998],6.88
19,AAAAAAAAAAAAAAAAAAAAAAAAAAAAAAAAAAAG [CACACA_negctrl_site292],7.6

row,Sequence,gcPBM binding intensity (ln)
1,ATTGTGGATATTCTTACACACAAATTTATTTATAAA [CACACA_site7267],6.05
2,TAAGAAATTGAGCGCACACATACATCTGTGGGATGG [CACACA_site1548],6.81
3,ATGTAAATATTTTGTATGCACTTTGATGCATCTTTT,8.08
4,TTTTTTTCTTCTTTTCTCTTAAAAATATTGAATATT [CACACA_negctrl_site1762],6.28
5,AAATAAAATAAAATACGTACCTATTGTGCGTATTAA [XGTACX_site2912],7.52
6,ATTTTAACTCCCCTTAATCTATTGTATATATATATA [CACACA_negctrl_site208],8.84
7,AATAATTTCCAAAAATGTACATATATTTACATATAT [XGTACX_site1790],6.32
8,TAATAAATGTTATTAGTGCATAATAGATAATATATT,9.6
9,TATTCGAACAAAAATACATGCACATATGCATAATAA [TGCATGCA_site171],10
10,TTTTCCAGTAAATATTTTTTTATAATATTTATATAT [CACACA_negctrl_site387],6.36
11,AGCCACTTAAAATACACACACACCAAAAAAAAAAAA [CACACA_site5497],6.84
12,TATTTTATTTATTGAAGTACATTATACAAAAATAAA [XGTACX_site4824],6.3
13,TACATATATATAATATGTACTTATAATATGTATTTA [XGTACX_site2162],5.96
14,TTATTTGTTTGTTGGATGCTTTTTTTTTTTTTTTTT [CACACA_negctrl_site1697],6.59
15,AAAAGTGATAATAAGAGTACATAAAAAATTTATTAT [XGTACX_site8037],6.31
16,ATTTCCCACTTGTGTGTGCGCATGTGTATATATTTA [GTGCAC_site9949],7.35
17,TATTCTATACTATATTGTACTATAATATAATATACT [XGTACX_site797],6.45
18,AATGAAAAAAAAAAAAAAAAGAAGAAGCAAATGGTA [TGCATGCA_negctrl_site335],6.55
19,ATAAATAATTATATATGTACACATTATGAATGGATA [XGTACX_site8336],6.74

row,Sequence,gcPBM binding intensity (ln)
1,AGATTATTTGGACATGCATGTAAAAAAATACGTATA [TGCATGCA_site972],6.73
2,TCTTCATATGTTTACTGTACGAGAAAAAAAAAAAAA [XGTACX_site6418],6.8
3,TATGTGTATTTATTTGCATGTTGGTTGTATTTTTTC [TGCATGCA_site479],6.94
4,TAATAAAATAAAAATTGTACATTTTATATTTATCAA [XGTACX_site5134],6.1
5,TAGAAACCATAAAAATGTACTTAAAAATAGACAATT [XGTACX_site5007],6.1
6,TCTGAAATTTTAGGGGTGCCTGGGACTAAAGAAACG [GTGCAC_site9785],6.23
7,AAGAACAGATAAAATCGTACGTGAAACATGAACTTG [XGTACX_site7793],6.34
8,ATACATAAATATTATTGTACATATATAATATTAATA [XGTACX_site3514],6.23
9,TTTAATTCCCATATATGTACACAATTTCTTCTATAA [XGTACX_site1465],6.9
10,AGACTTTTTATGAGCACACACATATATTATGGAGTA [CACACA_site1040],7.19
11,ATAAATTCATTATATTGTACAAACAAATGAAAAAAA [XGTACX_site8304],6.5
12,AAAATTCATCCAACAAGTACATAAATATAATATTAT [XGTACX_site4596],6.51
13,AAAATATTTAAGCATTGTACATATTTTTACAAATAC [XGTACX_site5349],6.22
14,GGAAAAAGAAATTAATGTACATGTGGATGTATGAGG [XGTACX_site5468],6.58
15,CTACACAAGCATTAAACACACAAAAGGGATACTTTG [CACACA_site1083],6.55
16,ATTCAAAAAAATAAAATAAACATAAATAAACATAAA [TGCATGCA_negctrl_site390],6.79
17,ATTTTTACTTTTTATGCATGCTATATTTTCAACCAT [TGCATGCA_site871],7.45
18,ATTTTTTTTTTTTTATGTACATATTAAAAAAAATAT [XGTACX_site1829],6.46
19,GGTATTACTTTTAGCTGTACTTATTTAAAAGTCAAA [XGTACX_site530],6.51

# — the supplement of paper PMC11417369
